PubChem BioAssay AID463173 (ICCB-Longwood Screening Facility, Harvard Medical School, 2010)
Screen size: about 52,000 compounds; about 4,300 (8.3%) were called active. No stated cut-off is given here; in the data, active means survival mostly below about 52% (no sharp cut-off); inactive means mostly above about 56%. The list shows a part of the results.

test system: DeltatarO mutant; assay: growth inhibition of S. aureus wild type versus tarO mutant, primary screen, teichoic acid synthesis inhibitors, RN4220, OD600 (AID 463173); settings: OD600, 18 h, active compounds read low, screened at 18.75 µg/mL (by protocol)

Q: For `O=C(NN1CC(=O)N(C2CCCC2)C1=O)C(c1ccccc1)c1ccccc1`, which survival is on record?
A: inactive: 83%

Q: With `CC1=C(c2ccc(C)cc2)S(=O)(=O)N(Cc2ccc(C(=O)NCc3cccc(C)c3)cc2)C1=O` as the compound, how does the survival read?
A: inactive: 86%

Q: For `CC(Oc1ccccc1)c1nnc(N)s1` (configuration not stated), which survival is on record?
A: inactive: 84%

Q: With `Cc1c(Cl)cccc1NC(=O)N1CCC(CN2CCCC2)CC1` as the compound, how does the survival read?
A: inactive: 83%

Q: Which survival does the source give for `O=C(Cc1ccc(F)cc1)NC1CC(=O)N(c2ccc3c(c2)OCCO3)C1` (configuration not stated) here?
A: inactive: 77%

Q: `COc1cccc(-c2cn3c(n2)sc2cc(C(=O)NC4CCCCCC4)ccc23)c1` was tested. Which survival did it give?
A: inactive: 60%

Q: How did the survival turn out when `CC1Cc2ccccc2N1C(=O)C1CCN(S(=O)(=O)c2ccc(-n3cnnn3)cc2)CC1` (configuration not stated) was run?
A: inactive: 93%

Q: `O=C(Cn1ncc2c3ccccc3n(Cc3ccc(Cl)cc3)c2c1=O)N1CCCCCC1` was tested. Which survival did it give?
A: inactive: 84%

Q: `COc1ccc(Br)cc1CNC(=O)Cn1c(=O)c2cccn2c2ccc(F)cc21` was tested. Which survival did it give?
A: inactive: 64%

Q: With `Cc1ccccc1Cn1cc(CCC(=O)NC(C)c2ccccc2)c2ccccc21` (configuration not stated) as the compound, how does the survival read?
A: inactive: 71%

Q: With `Cc1cc(C)c2oc(-c3cccc(NC(=O)c4ccc(Br)o4)c3)nc2c1` as the compound, how does the survival read?
A: active: 34%

Q: For `CCC(C)c1ccc(OCC(=O)Nc2cccc(-c3nc4ncccc4o3)c2)cc1` (configuration not stated), which survival is on record?
A: active: 19%

Q: Which survival does the source give for `CCOc1ccc(NC(=O)c2oc3ccccc3c2NC(=O)Cc2ccc(F)cc2)cc1` here?
A: inactive: 101%

Q: How did the survival turn out when `COC(=O)c1cc(NC(=O)c2oc(=O)c3ccccc3c2-c2ccccc2)cc(C(=O)OC)c1` was run?
A: inactive: 68%

Q: With `Cc1ccc(NC(=O)CN2C(=O)CSc3ccc(S(=O)(=O)N4CCCC4)cc32)cc1F` as the compound, how does the survival read?
A: inactive: 87%

Q: For `COc1cc(OC)c(NC(=O)c2nnn(Cc3ccc(C)cc3)c2N)cc1Cl`, which survival is on record?
A: inactive: 60%

Q: For `Cc1ccc(NC(=O)c2c(NC(=O)c3ccco3)sc3c2CCC(C(C)(C)C)C3)c(C)c1` (configuration not stated), which survival is on record?
A: inactive: 145%

Q: Which survival does the source give for `CCc1ccc(NC(=O)c2cc(S(=O)(=O)NC3CCCC3)ccc2F)cc1` here?
A: inactive: 120%

Q: How did the survival turn out when `COc1ccccc1CNC(=O)c1ccccc1NC(=O)c1nsc2ccccc12` was run?
A: inactive: 81%

Q: Which survival does the source give for `CCOC(=O)c1[nH]c2ccccc2c1NC(=O)c1ccccc1OCC` here?
A: inactive: 68%

Q: How did the survival turn out when `Cc1ccc(-n2nc3ccc(NC(=O)c4oc5ccccc5c4C)cc3n2)cc1` was run?
A: active: 31%

Q: With `O=C1COc2ccccc2N1Cc1c(F)cccc1Cl` as the compound, how does the survival read?
A: inactive: 79%

Q: Which survival does the source give for `O=C(Nc1ccc2c(c1)CCCN2C(=O)c1cccs1)c1cccc(C(F)(F)F)c1` here?
A: inactive: 102%

Q: For `Cc1ccc(S(=O)(=O)N(CC(=O)Nc2ccc(C(C)C)cc2)Cc2ccccc2)cc1`, which survival is on record?
A: inactive: 54%

Q: Which survival does the source give for `CC(=O)N1c2ccc(S(=O)(=O)NCC3CCC(C(=O)NC(C)(C)C)CC3)cc2CC1C` (configuration not stated) here?
A: inactive: 92%

Q: How did the survival turn out when `Cc1ccccc1NC(=O)CCC(=O)N1CCSc2ccccc21` was run?
A: inactive: 72%

Q: `O=C(NCC(c1cccs1)S(=O)(=O)c1cccs1)c1ccccc1F` (configuration not stated) was tested. Which survival did it give?
A: inactive: 101%

Q: `Clc1ccccc1N1CCN(c2ncnc3c2c(-c2ccccc2)cn3-c2ccccc2)CC1` was tested. Which survival did it give?
A: inactive: 80%

Q: `CCN(CC)c1nn2c(=O)c(C(=O)NCc3ccc(OC)cc3OC)cnc2s1` was tested. Which survival did it give?
A: inactive: 75%

Q: `O=C(NCc1ccc(Cl)cc1)C(=O)NCC(c1cccs1)S(=O)(=O)c1ccc(Cl)cc1` (configuration not stated) was tested. Which survival did it give?
A: inactive: 85%

Q: For `CCCNC(=O)c1ccc2c(c1)N=C(C)c1c(C)ccc(C)c1S2`, which survival is on record?
A: inactive: 61%

Q: `CCOc1ccc(CCNC(=O)C2CCN(c3ncnc4c3nc3n4CCCCC3)CC2)cc1` was tested. Which survival did it give?
A: inactive: 91%

Q: Which survival does the source give for `CCOC(=O)C1CCN(C(=O)c2cc3ccc4cccnc4c3[nH]2)CC1` here?
A: inactive: 69%

Q: `CCN(C(=O)c1noc2c1COc1ccc(C)cc1-2)c1cccc(C)c1` was tested. Which survival did it give?
A: inactive: 54%

Q: For `O=C(Nc1ccccc1F)c1nc(S(=O)(=O)Cc2ccccc2F)ncc1Cl`, which survival is on record?
A: active: -4%

Q: Which survival does the source give for `Cc1nc2ccc(Br)cn2c1NC(C)(C)C` here?
A: inactive: 63%

Q: Which survival does the source give for `Clc1cccc(-n2ncc3c(NC4CCCCC4)ncnc32)c1` here?
A: inactive: 99%

Q: For `Cc1cccc(N2CCCC2=Nc2ccc(Br)cc2C#N)c1`, which survival is on record?
A: inactive: 90%

Q: For `Cc1cccc(N2CCN(C(=O)c3cc(S(=O)(=O)N4CCC(C)CC4)cn3C)CC2)c1C`, which survival is on record?
A: inactive: 58%

Q: How did the survival turn out when `CC(C)(C)OC(=O)N1CCC(c2c(C(=O)NCCN3CCC(Cc4ccccc4)CC3)cnn2-c2cccc(Cl)c2)CC1` was run?
A: inactive: 79%

Q: With `O=C(Nc1cccc(Cl)c1Cl)c1cc(S(=O)(=O)N2CCCCC2)ccc1F` as the compound, how does the survival read?
A: inactive: 72%

Q: With `COc1ccc(CCNC(=O)C2CC(=O)N(CCc3ccccc3)C2)cc1OC` (configuration not stated) as the compound, how does the survival read?
A: inactive: 112%

Q: `Cc1ccc(C)c(Cn2c(=O)n(-c3ccc(Cl)cc3)c(=O)c3c4c(sc32)CCC4)c1` was tested. Which survival did it give?
A: inactive: 144%

Q: `COCCCNC(=O)c1ccc(CSc2nc3cccnc3n2Cc2ccc(OC)cc2)cc1` was tested. Which survival did it give?
A: inactive: 107%

Q: How did the survival turn out when `Cc1cc(C)c(S(=O)(=O)Nc2ccc3oc4c(c3c2)CCCC4)cc1C` was run?
A: inactive: 55%

Q: For `COc1nc(C)c(/C=C/C(=O)N(C(=O)NC2CCCCC2)C2CCCCC2)c(OC)n1`, which survival is on record?
A: inactive: 58%

Q: `CC(CNC(=O)CCn1c(=O)c2cccn2c2ccc(F)cc21)c1ccccc1` (configuration not stated) was tested. Which survival did it give?
A: active: 34%

Q: With `CCOC(=O)c1ccccc1NC(=O)CSc1c(C)cnc2c1c(=O)n(C)c(=O)n2C` as the compound, how does the survival read?
A: inactive: 80%

Q: For `NC(=O)CSc1nnc(CNc2ccc(Cl)cc2)n1Cc1ccccc1`, which survival is on record?
A: inactive: 96%

Q: `Cc1nc2c(c(C)c1CCC(=O)N1CCN(c3ccccc3)CC1)c(=O)n(C)c(=O)n2C` was tested. Which survival did it give?
A: inactive: 106%

Q: `COc1ccc(C2C=C(c3ccccc3)Nc3nc(NS(=O)(=O)c4ccccc4)nn32)cc1` (configuration not stated) was tested. Which survival did it give?
A: active: 25%

Q: `Cc1ccc(-c2cn3c(n2)sc2cc(C(=O)NCCC4=CCCCC4)ccc23)c(C)c1` was tested. Which survival did it give?
A: inactive: 88%

Q: Which survival does the source give for `CCOc1ccc(S(=O)(=O)NCC(c2ccc(N(C)C)cc2)N2CCCC2)cc1` (configuration not stated) here?
A: inactive: 107%

Q: `O=C(COc1ccc(F)cc1)Nc1ccc2nc(SCC(=O)N3CCCC3)sc2c1` was tested. Which survival did it give?
A: inactive: 91%

Q: `CCOc1ccc(NC(=O)C2CCN(C(=O)Cc3ccccc3)CC2)cc1` was tested. Which survival did it give?
A: inactive: 75%

Q: `COc1ccccc1N1CCN(C2C(=O)c3ccccc3N2C(C)=O)CC1` (configuration not stated) was tested. Which survival did it give?
A: inactive: 95%

Q: Which survival does the source give for `CCOc1ccc(-c2nnc(SCC(=O)Nc3ccccc3C(F)(F)F)o2)cc1` here?
A: inactive: 62%
